Results from article PMC11651300.

Target: T1, Avidin from hen egg-white (hen (egg-white)), P02701
T1 chain: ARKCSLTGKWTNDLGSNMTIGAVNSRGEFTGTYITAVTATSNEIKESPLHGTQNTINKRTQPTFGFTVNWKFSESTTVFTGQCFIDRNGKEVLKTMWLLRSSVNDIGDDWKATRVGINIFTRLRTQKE
Assay: native MS
Conditions: remark: other sources report otherwise

stoichiometry N: 4
B1: Avidin from hen egg-white, P02701 25-152 (natural protein)
chain: T1 chain
modifications: here or on the partner: heavily glycosylated (multiple glycoforms present); heavily glycosylated (multiple glycoforms present)
